Some of the results follow. For part of these data: At the low end of the ranking the order means little. For part of these data: Measured with an extract: partners may take part in the binding.

In one test the target is PU.1 (IVT) (UniProt P17947). Put plainly: protein-binding microarray (PBM). Particulars: 20 mM HEPES pH 7.9, 100 mM NaCl, 1 mM DTT, 0.2 mg/mL BSA, 0.02% Triton X-100, 2% milk, 0.4 mg/mL salmon testes DNA; 1 h; temperature not stated; high values mean tight binding; double strand, one strand shown; sequences stand for … in GCCTAGCAC…GTGCTAGGTCTTGATTCGCTTGACGCTGCTG
GAATGAAGGAAGTGGAAGTC yielded a binding signal of 4 z-score.

Sequence ATAGAGAGGAAGTGATCCTG returned a binding signal of 4.66 z-score.

The sequence GAAAAAAGGAAGTGGGTCAC displayed a binding signal of 5.92 z-score.

On to CAAATGAGGAACTGATGCGG, for which the binding signal was determined as 5.55 z-score.

In the case of AGAAAGGGGAAGTGATTTGT, the binding signal is 8.13 z-score.

As to CTAAAGAGGAAGTGGGATGC, the binding signal came to 6.64 z-score.

As for GAAAAGAGGAACAGGCCTGA, the binding signal amounted to 4.62 z-score.

With CTACTGAGGAAGTGTAAGCC, the binding signal worked out at 2.48 z-score.

For AAAAAAAGGAACTGACTAGA, the binding signal amounted to 4.95 z-score.

GAAAAGAGGAAATGGGGAGT displayed a binding signal of 5.14 z-score.

In turn, AGGGAGGGGAAGTGAGGCCG displayed a binding signal of 3.08 z-score.

As for CAAAAAGGTAAGTGGATGCT, the binding signal turned out to be 0.987 z-score.

The sequence TCTGAGGGGAAGTGCTGGTC showed a binding signal of 3.23 z-score.

For AAAAGCAGGAAGTGAAACAG, the binding signal stood at 4.87 z-score.

Take CAAATGAGGAACTGATGCCG: the binding signal amounted to 5.51 z-score.

The sequence AGGCAGAGGAAGTGGCCTGA came in with a binding signal of 2.98 z-score.

AATAAGAGGAAGTCCCTATG registered a binding signal of 6.25 z-score.

Sequence AAAAAAAGGAACAGGCTAGA came in with a binding signal of 2.22 z-score.

ACAATGAGGAAGTGCTGGCC showed a binding signal of 6.19 z-score.

Take GGTTTGGGGAAGTGGTTAAC: the binding signal turned out to be 5.39 z-score.

GGAATGGGGAAGTGGAGAGG registered a binding signal of 6.1 z-score.

In the case of CATAAAGGGAAGTGGATGCT, the binding signal is 4.56 z-score.

GAAAACAGGTAGTCCCATAG registered a binding signal of 1.64 z-score.

In turn, CAGAAAAGGAAGTGGCCCAG yielded a binding signal of 3.56 z-score.

Sequence TAGAAGAGGAAGTCAGGAGT showed a binding signal of 5.21 z-score.

Regarding AAAAAAAGGAACTGTGCCCC, the binding signal was 4.28 z-score.

The sequence CAAATGAGGAACTGATGTGG displayed a binding signal of 5.64 z-score.

CAGCTGAGGAAGTGGGTGGG registered a binding signal of 2.45 z-score.

GAAAAGAGGAAGTCAAATGG registered a binding signal of 8.01 z-score.

The sequence GAAAACAGGAACTGCAAATA came in with a binding signal of 6 z-score.

In the case of AAAAAAAGGAACTGGCCAGA, the binding signal came to 4.2 z-score.

Turning to ATTTTCAGGAAGTGGCAAAA, the binding signal was found to be 5.32 z-score.

AGAATAGGGAAGTGAGAAAT: the binding signal was found to be 6.39 z-score.

The sequence TGAAAGCGGAAGTGCAACCA had a binding signal of 7.48 z-score.

Regarding GGAAAGAGGAACTGGAGGAG, the binding signal was 6.01 z-score.

AGGAAAAGGAAGTGAGTCAC yielded a binding signal of 4.13 z-score.

Turning to GAAATCAGGAAGTGTGAATC, the binding signal turned out to be 5.57 z-score.

In turn, TAGAAGAGGAAGTGTGCGTG yielded a binding signal of 5.71 z-score.

Sequence CGAATCAGGAAGTGCGCCCA showed a binding signal of 4.45 z-score.

AGATTGAGGAAGTGGGCTAT showed a binding signal of 6.86 z-score.

The target in the next test is PU.1 (endogenous, THP-1 nuclear extract) (UniProt P17947). Put plainly: nuclear extract protein-binding microarray (nextPBM). The settings on record: 20 mM HEPES pH 7.9, 100 mM NaCl, 1 mM DTT, 0.2 mg/mL BSA, 0.02% Triton X-100, 2% milk, 0.4 mg/mL salmon testes DNA; 1 h; temperature not stated; high values mean tight binding; double strand, one strand shown; sequences stand for … in GCCTAGCAC…GTGCTAGGTCTTGATTCGCTTGACGCTGCTG
GAATGAAGGAAGTGGAAGTC returned a binding signal of 3.93 z-score.

ATAGAGAGGAAGTGATCCTG gave a binding signal of 4.63 z-score.

Take GAAAAAAGGAAGTGGGTCAC: the binding signal amounted to 6.56 z-score.

CAAATGAGGAACTGATGCGG: the binding signal came out at 6.38 z-score.

The sequence AGAAAGGGGAAGTGATTTGT registered a binding signal of 7.28 z-score.

Sequence CTAAAGAGGAAGTGGGATGC came in with a binding signal of 6.93 z-score.

For the sequence GAAAAGAGGAACAGGCCTGA, the binding signal turned out to be 5 z-score.

CTACTGAGGAAGTGTAAGCC gave a binding signal of 2.8 z-score.

For AAAAAAAGGAACTGACTAGA, the binding signal was found to be 4.5 z-score.

GAAAAGAGGAAATGGGGAGT showed a binding signal of 5.72 z-score.

The sequence AGGGAGGGGAAGTGAGGCCG showed a binding signal of 3.22 z-score.

As for CAAAAAGGTAAGTGGATGCT, the binding signal worked out at 0.259 z-score.

Sequence TCTGAGGGGAAGTGCTGGTC had a binding signal of 3.51 z-score.

The sequence AAAAGCAGGAAGTGAAACAG showed a binding signal of 6.05 z-score.

For CAAATGAGGAACTGATGCCG, the binding signal came out at 6.36 z-score.

The sequence AGGCAGAGGAAGTGGCCTGA yielded a binding signal of 2.94 z-score.

In turn, AATAAGAGGAAGTCCCTATG gave a binding signal of 6.49 z-score.

The sequence AAAAAAAGGAACAGGCTAGA gave a binding signal of 2.21 z-score.

The sequence ACAATGAGGAAGTGCTGGCC displayed a binding signal of 6.74 z-score.

Sequence GGTTTGGGGAAGTGGTTAAC showed a binding signal of 5.52 z-score.

Turning to GGAATGGGGAAGTGGAGAGG, the binding signal is 6.59 z-score.

Turning to CATAAAGGGAAGTGGATGCT, the binding signal turned out to be 5.06 z-score.

With GAAAACAGGTAGTCCCATAG, the binding signal was 1.62 z-score.

On to CAGAAAAGGAAGTGGCCCAG, for which the binding signal was determined as 3.65 z-score.

TAGAAGAGGAAGTCAGGAGT: the binding signal is 6.08 z-score.

AAAAAAAGGAACTGTGCCCC showed a binding signal of 4.24 z-score.

CAAATGAGGAACTGATGTGG displayed a binding signal of 6.22 z-score.

CAGCTGAGGAAGTGGGTGGG displayed a binding signal of 2.61 z-score.

The sequence GAAAAGAGGAAGTCAAATGG came in with a binding signal of 7.13 z-score.

GAAAACAGGAACTGCAAATA came in with a binding signal of 6.17 z-score.

Take AAAAAAAGGAACTGGCCAGA: the binding signal was 4.37 z-score.

ATTTTCAGGAAGTGGCAAAA: the binding signal was 5.75 z-score.

The sequence AGAATAGGGAAGTGAGAAAT returned a binding signal of 6.76 z-score.

Regarding TGAAAGCGGAAGTGCAACCA, the binding signal worked out at 7.1 z-score.

The sequence GGAAAGAGGAACTGGAGGAG yielded a binding signal of 6.47 z-score.

On to AGGAAAAGGAAGTGAGTCAC, for which the binding signal turned out to be 3.91 z-score.

On to GAAATCAGGAAGTGTGAATC, for which the binding signal amounted to 6.2 z-score.

For the sequence TAGAAGAGGAAGTGTGCGTG, the binding signal was found to be 6.43 z-score.

With CGAATCAGGAAGTGCGCCCA, the binding signal was determined as 5.15 z-score.

In turn, AGATTGAGGAAGTGGGCTAT displayed a binding signal of 6.78 z-score.

In a further test the target is T1, FLI1 (endogenous, THP-1 nuclear extract) (UniProt Q01543).
T1 sequence: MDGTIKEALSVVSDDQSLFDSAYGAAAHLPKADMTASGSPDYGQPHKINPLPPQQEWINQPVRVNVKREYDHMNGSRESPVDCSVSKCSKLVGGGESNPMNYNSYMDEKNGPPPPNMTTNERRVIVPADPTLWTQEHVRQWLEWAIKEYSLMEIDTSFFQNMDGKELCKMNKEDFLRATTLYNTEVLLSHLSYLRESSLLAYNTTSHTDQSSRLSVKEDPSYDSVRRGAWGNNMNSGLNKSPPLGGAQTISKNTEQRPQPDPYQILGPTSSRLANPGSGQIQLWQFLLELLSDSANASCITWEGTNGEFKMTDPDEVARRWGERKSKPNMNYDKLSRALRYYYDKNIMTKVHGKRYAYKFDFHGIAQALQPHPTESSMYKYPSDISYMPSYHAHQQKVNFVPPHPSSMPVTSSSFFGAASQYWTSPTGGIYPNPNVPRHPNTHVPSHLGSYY
Described as above. The settings on record: 20 mM HEPES pH 7.9, 100 mM NaCl, 1 mM DTT, 0.2 mg/mL BSA, 0.02% Triton X-100, 2% milk, 0.4 mg/mL salmon testes DNA; 1 h; temperature not stated; high values mean tight binding; double strand, one strand shown; sequences stand for … in GCCTAGCAC…GTGCTAGGTCTTGATTCGCTTGACGCTGCTG
As for GAATGAAGGAAGTGGAAGTC, the binding signal is 2.57 z-score.

Turning to ATAGAGAGGAAGTGATCCTG, the binding signal amounted to 2.95 z-score.

In turn, GAAAAAAGGAAGTGGGTCAC registered a binding signal of 2.92 z-score.

Sequence CAAATGAGGAACTGATGCGG had a binding signal of 1.58 z-score.

On to AGAAAGGGGAAGTGATTTGT, for which the binding signal was determined as 3.67 z-score.

Consider CTAAAGAGGAAGTGGGATGC, for which the binding signal came to 3.69 z-score.

Sequence GAAAAGAGGAACAGGCCTGA displayed a binding signal of 1.24 z-score.

The sequence CTACTGAGGAAGTGTAAGCC came in with a binding signal of 1.58 z-score.

For the sequence AAAAAAAGGAACTGACTAGA, the binding signal was found to be 1.04 z-score.

GAAAAGAGGAAATGGGGAGT gave a binding signal of 3.06 z-score.

AGGGAGGGGAAGTGAGGCCG showed a binding signal of 1.9 z-score.

In turn, CAAAAAGGTAAGTGGATGCT showed a binding signal of 0.535 z-score.

Take TCTGAGGGGAAGTGCTGGTC: the binding signal amounted to 2.35 z-score.

For the sequence AAAAGCAGGAAGTGAAACAG, the binding signal is 4.13 z-score.

For the sequence CAAATGAGGAACTGATGCCG, the binding signal is 2.17 z-score.

AGGCAGAGGAAGTGGCCTGA had a binding signal of 2.1 z-score.

Sequence AATAAGAGGAAGTCCCTATG displayed a binding signal of 3.07 z-score.

Turning to AAAAAAAGGAACAGGCTAGA, the binding signal was 0.322 z-score.

As for ACAATGAGGAAGTGCTGGCC, the binding signal turned out to be 2.67 z-score.

For GGTTTGGGGAAGTGGTTAAC, the binding signal is 2.27 z-score.

GGAATGGGGAAGTGGAGAGG displayed a binding signal of 2.4 z-score.

Take CATAAAGGGAAGTGGATGCT: the binding signal came to 2.28 z-score.

For GAAAACAGGTAGTCCCATAG, the binding signal is 0.287 z-score.

Regarding CAGAAAAGGAAGTGGCCCAG, the binding signal amounted to 2.4 z-score.

The sequence TAGAAGAGGAAGTCAGGAGT came in with a binding signal of 2.91 z-score.

For the sequence AAAAAAAGGAACTGTGCCCC, the binding signal turned out to be 1.25 z-score.

For CAAATGAGGAACTGATGTGG, the binding signal was 1.82 z-score.

In the case of CAGCTGAGGAAGTGGGTGGG, the binding signal worked out at 1.95 z-score.

In turn, GAAAAGAGGAAGTCAAATGG came in with a binding signal of 4.17 z-score.

Turning to GAAAACAGGAACTGCAAATA, the binding signal was 2.74 z-score.

In turn, AAAAAAAGGAACTGGCCAGA yielded a binding signal of 1.38 z-score.

Sequence ATTTTCAGGAAGTGGCAAAA returned a binding signal of 3.23 z-score.

AGAATAGGGAAGTGAGAAAT: the binding signal is 2.76 z-score.

TGAAAGCGGAAGTGCAACCA showed a binding signal of 5.42 z-score.

In turn, GGAAAGAGGAACTGGAGGAG came in with a binding signal of 2.7 z-score.

In turn, AGGAAAAGGAAGTGAGTCAC had a binding signal of 3.01 z-score.

On to GAAATCAGGAAGTGTGAATC, for which the binding signal is 3.29 z-score.

In the case of TAGAAGAGGAAGTGTGCGTG, the binding signal was determined as 3.13 z-score.

For the sequence CGAATCAGGAAGTGCGCCCA, the binding signal came to 3.24 z-score.

AGATTGAGGAAGTGGGCTAT returned a binding signal of 3.12 z-score.

(Values after publication PMC6451091.)
